The source of these data is PubChem BioAssay (NCI).

Structures are written as SMILES. Some structures have more than one record in an assay (separate samples or runs), and their calls can disagree.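 Interpretation: 100, growth as untreated; towards 0, rising growth inhibition; 0, no net growth; 0 to -100, cell death. Compounds scoring below 10 were considered active.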 Some entries of the source have several records that differ or are many. The other results are left out here. There may be further records. This drug was run again and again over the years, at the concentration stated with the values; each value is one run. Signs of the kind (2×) stand for listed records that agree.

For one experiment, the system named is NCI-H226 lung. Description: NCI-60 one-dose screen, 48 h (100 = growth as untreated, 0 = no growth, -100 = all killed). The note with it: 2.5 mM.
The next experiment has as its system NCI-H322M lung. The description is as above. The note with it: 2.5 mM.

Regarding `O=c1[nH]cc(F)c(=O)[nH]1`, the growth result with NCI-H226 lung (runs of 1996) is “inactive: 14.4, 56.4, 26.4, 35.1, 47.6 (2×), 51.7, 34.4, 33.7, 57.3, 40.5, 54.5, 62, 51.5, 55.7, 20.1, 42.9, 51, 58, 33.6, 54.8, 46.9, 36.5, 62.6, 31.8, 11.8, 18.8, 45.4 (2×), 34.6, 12.7, 49.2, 42.1 (2×), 30.8, 42.6, 57.1, 38.8, 52.7, 56.1, 60, 73.6, 39.6, 53, 75.6, 13.7, 32.5, 32.4, 11.4, 18.7, 24.8% and active: -8.66, -7.12, 7.1, 0.416, 5.78, -32.1, 9.63%”; in the experiment with NCI-H226 lung (runs of 1997) it was “inactive: 15.3, 48, 61.7, 27.6 (2×), 62.1, 30.5, 57.7, 27.3, 38.1, 38, 44.2, 61.8, 21.5, 42.3, 40.3, 45.9 (2×), 44.6, 53.2, 48.2, 27.4, 50.1, 47.6, 60.2, 68.7, 46.9, 51, 42.1, 49.9, 55.2, 50.8% and active: -0.362, 9.05, 1.93, -1.02, -2.11%”; with NCI-H226 lung (runs of 1998) it was “inactive: 65.6, 94.4, 48.5, 21.7, 44.4, 75.6, 55.4, 44.8, 59.6, 26.3, 63.1, 52.5, 28.3% and active: -6.91, 6.6, -2.27, -23.8, -19.1, 4.7%”; in the experiment on NCI-H226 lung (runs of 1999), “inactive: 22.9, 26.4, 11.3, 22, 35.6% and active: -68.6, -74.9, -85.8, -69.6, -71, -47.7, -34.9, -43.1, 0.0899%”; with NCI-H226 lung (runs of 2000), “active: -69.6, -16, -36.2, -82.8%”; in the experiment on NCI-H322M lung (runs of 1991) it was “inactive: 17.6, 44.2, 22.3, 25.2, 20.8, 14.4, 10.8, 37.4, 28, 21.5, 27.4, 18.2, 28.4, 33.8, 29.8% and active: 6.97%, 0.769%, -6.81%”. Moreover, the growth result with NCI-H322M lung (runs of 1992) is “inactive: 17.4, 35.6 (2×), 14.2, 39.1, 30.3, 20.2 (2×), 16, 25.7 (2×), 16.5, 25.3 (2×), 18.2 (2×), 10.6, 35.7, 30.8, 43.4, 23.2, 10, 64.2, 32.5, 25.4, 21.5, 22.9, 42 (2×), 58.6, 43.3, 41, 32.1, 46.3, 17 (2×), 30.6 (2×), 26.5, 21.8, 17.9, 36, 14.4, 24.5 (3×), 24.8, 33.8 (2×), 29.7, 28.6, 31.7, 16.1, 26.3 (2×), 26.8, 26.6, 103, 20.4, 32, 12.3, 23.9 (2×), 35.9, 24, 27.7, 22.6, 33.9, 19.1, 21.2, 17.1, 25 (3×), 38.1, 20.6 (2×), 35.8, 31.9, 32.8 (2×), 15.3, 14.5, 32.6, 15.2, 28.3, 33.2, 30, 18.6, 48.1, 18.4, 11.9, 13.5, 11.1, 29.8, 30.7, 15.8, 29.1, 20.9, 23.4, 32.9, 26.1, 19.8, 21.3, 36.1, 21.7, 41.3, 35.1, 30.1% and active: 6.03, 6.25, 7.85, -4.9, -14.7, 7.12, 5.81, 6.4%”; with NCI-H322M lung (runs of 1993), “inactive: 23.8, 23.2, 26 (2×), 15.2 (2×), 23.9, 14 (3×), 11.6, 24.4, 33.6, 41.3, 10.1, 16.4, 34.8, 28.4, 22.9, 23.7, 28.1, 21.4, 30.6, 26.1, 15.7, 17.4, 37.8, 77.8, 17, 32.9, 25.5, 13, 35.7, 28.3, 20.1% and active: 2.95, 7.63, -1.75, 5.33, -8.49%”; in the experiment with NCI-H322M lung (runs of 1994), “inactive: 24.6, 11.5, 29.8, 22.7, 34.2, 31.8, 25.8, 40.8 (2×), 33.3, 30.6, 26.9, 38.4, 31.5, 23.7, 37.4, 21.8, 21.1, 32, 37.8, 39.4, 22, 25.1, 33.1, 13.3, 29.3% and active: -2.67%, -12.8%”; in the experiment with NCI-H322M lung (runs of 1995), “inactive: 35.3, 17.6, 19.2, 23.1 (2×), 36.4, 35.7, 10.1, 27.9 (2×), 27.3, 22.8, 13.1, 33, 22.7, 27.4, 19.8, 11.4, 24.6, 26.8, 34.8, 18.7, 31.1, 37.8, 28.4, 28.1, 35.4, 24.9, 25.6, 29.8, 21.5, 31.8, 26.9, 21, 33.6% and active: 9.69, -9.25, -3.29, -7.59%”; in the experiment on NCI-H322M lung (runs of 1996), “inactive: 28, 25 (2×), 17.9, 24.4 (2×), 28.1, 21.1 (2×), 16.2, 29.6, 19.3, 24.9 (2×), 34.1 (3×), 38.8, 18.5, 31.2, 31, 20.8, 33.8, 43.6, 36, 36.6, 34.7, 44.2, 27, 29.4, 30.6, 17.7, 34.4, 29.9, 34, 33.4, 27.9, 30.2, 29.5, 22.9, 22.6, 25.5, 32.7, 10.7, 23.2, 35.6, 42.1, 13.5, 28.2, 28.6, 33.1, 50.3, 34.3, 29, 40.8% and active: 2.39%, 7.12%”; in the experiment with NCI-H322M lung (runs of 1997), “inactive: 34.6 (2×), 36.7, 24.7, 30.4, 28.8 (2×), 31.3, 25, 12.8, 31.9 (2×), 31.5, 18.7, 40.2, 15.6, 30.2, 25.4, 30.1, 37.7, 26.4, 41.3, 37.8, 20, 18.8, 12.3, 17.4, 22.1, 12, 21, 15.7, 41.5, 25.6, 17.2, 39.1, 26.2, 21.2, 17.5, 22.4, 30.9% and active: -1.84%, 8.06%, -20%”. The growth entry in the experiment on NCI-H322M lung (runs of 1998) was “active: 0.621, 0.452, 8.86, 1.2, -4.17, -6.04, -22.9, -18.7, -29.7, -18.2, -34.3% and inactive: 16.4, 41.9, 32.3, 27.4, 31.4, 20.9, 28.2, 13.2, 20.7, 40.4, 33, 22.2, 17.1, 12.6, 12.8%”; in the experiment with NCI-H322M lung (runs of 1999), “inactive: 47.1, 19.5, 21.1, 18.6, 21.2, 29.7, 11.3% and active: -63.4, 0.676, -28.4, -30.1, 8.24, -19.6, -49.1, -100%”; in the experiment with NCI-H322M lung (runs of 2000), “active: -20.7, -54.9, -11.2, -27.4%”.
